# Experimental data published in PubChem BioAssay (Tox21).
# “And” between values parts separate entries of the source, which are not always exact repeats. Identical values can stand only once. The inconclusive results got no clear call from the source; some entries with a clear call stand among them for comparison. For part of these data: Where the call is inconclusive, the potency comes from a doubtful curve fit. A structure can be active in one record and inactive in another. The source made the active and inactive calls. Unless noted, the call rests on the fitted dose curve; in most records, active means well fitted curve in the direction sought with a large enough effect in the repeat runs; inconclusive means weak or mixed curves; inactive means no such curve, though single readings can be large; an effect the other way counts as inactive or inconclusive.
# Key:
# [1] = molecular target: Luciferin 4-monooxygenase (Photinus pyralis) (UniProt P08659); experiment: qHTS assay to identify small molecule inhibitors of firefly luciferase (AID 1224835); further: nearly all actives have a fitted effect of over 25% in size; further: potency means the concentration at half of the fitted maximal effect
# Sequence of UniProt P08659 (P08659 whole entry, looked up): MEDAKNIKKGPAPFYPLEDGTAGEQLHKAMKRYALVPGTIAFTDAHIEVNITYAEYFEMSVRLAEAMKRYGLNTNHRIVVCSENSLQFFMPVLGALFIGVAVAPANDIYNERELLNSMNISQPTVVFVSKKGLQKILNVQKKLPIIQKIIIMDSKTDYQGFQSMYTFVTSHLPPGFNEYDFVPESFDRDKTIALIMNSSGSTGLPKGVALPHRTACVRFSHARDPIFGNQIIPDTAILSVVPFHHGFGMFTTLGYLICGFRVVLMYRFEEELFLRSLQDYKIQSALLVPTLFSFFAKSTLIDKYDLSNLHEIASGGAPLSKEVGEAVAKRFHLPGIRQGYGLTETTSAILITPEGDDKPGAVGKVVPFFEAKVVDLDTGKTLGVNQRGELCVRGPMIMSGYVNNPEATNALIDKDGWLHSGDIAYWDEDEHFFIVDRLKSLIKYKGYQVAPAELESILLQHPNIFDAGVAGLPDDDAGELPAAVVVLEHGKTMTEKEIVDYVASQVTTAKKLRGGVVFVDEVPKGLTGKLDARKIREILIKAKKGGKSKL
# Procedure, shortened: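 Biochemical qHTS: compounds run as interplate titrations against purified firefly enzyme, with D-luciferin and ATP each at its KM concentration. Light output recorded by CCD imaging.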
# [2] = A CellTox Green Cytotoxicity Assay to monitor cytotoxicity in HepG2 cells - 16 hour (AID 1224876); further: nearly all actives have a fitted effect of over 45% in size; further: potency means the concentration at half of the fitted maximal effect
# Procedure, shortened: (§1)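 Real-time, homogeneous cytotoxicity readout: dead-cell DNA staining by CellTox Green in HepG2 monolayers, fluorescence measured at timed intervals up to 40 h of continuous compound exposure.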
# [3] = qHTS RealTime-Glo MT Cell Viability Assay in HEK293 cells - 8 hour (AID 1224887); further: nearly all actives have a fitted effect of over 50% in size; further: potency means the concentration at half of the fitted maximal effect; on activity change, negative = cytotoxicity: top concentration of the series differs between compounds; on the % scale 0 is the no-effect control and ±100 the full control effect
# Procedure, shortened: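 Nonlytic bioluminescent viability monitoring. HEK293 at 600 cells/well with reagent; 5 h settle; compound transfer by pintool; plates held at 37 C and read at set time points.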
# [4] = A CellTox Green Cytotoxicity Assay to monitor cytotoxicity in HepG2 cells - 32 hour (AID 1224883); further: nearly all actives have a fitted effect of over 50% in size; further: potency means the concentration at half of the fitted maximal effect
# Procedure, shortened: as §1
# [5] = molecular target: Progesterone receptor (Homo sapiens) (UniProt P06401); experiment: qHTS assay to identify small molecule agonists of the progesterone receptor (PR) signaling pathway (AID 1346784; calls by dose curve; further: nearly all actives have a fitted effect of over 30% in size; further: potency means the concentration at half of the fitted maximal effect; on activation: on the % scale 0 is the no-effect control and ±100 the full control effect); details: PR-UAS-bla HEK293T, beta-lactamase FRET ratio, 16 h; activation: at 92.4 µM (top of the series) unless noted
# Sequence of UniProt P06401 (P06401 whole entry, looked up): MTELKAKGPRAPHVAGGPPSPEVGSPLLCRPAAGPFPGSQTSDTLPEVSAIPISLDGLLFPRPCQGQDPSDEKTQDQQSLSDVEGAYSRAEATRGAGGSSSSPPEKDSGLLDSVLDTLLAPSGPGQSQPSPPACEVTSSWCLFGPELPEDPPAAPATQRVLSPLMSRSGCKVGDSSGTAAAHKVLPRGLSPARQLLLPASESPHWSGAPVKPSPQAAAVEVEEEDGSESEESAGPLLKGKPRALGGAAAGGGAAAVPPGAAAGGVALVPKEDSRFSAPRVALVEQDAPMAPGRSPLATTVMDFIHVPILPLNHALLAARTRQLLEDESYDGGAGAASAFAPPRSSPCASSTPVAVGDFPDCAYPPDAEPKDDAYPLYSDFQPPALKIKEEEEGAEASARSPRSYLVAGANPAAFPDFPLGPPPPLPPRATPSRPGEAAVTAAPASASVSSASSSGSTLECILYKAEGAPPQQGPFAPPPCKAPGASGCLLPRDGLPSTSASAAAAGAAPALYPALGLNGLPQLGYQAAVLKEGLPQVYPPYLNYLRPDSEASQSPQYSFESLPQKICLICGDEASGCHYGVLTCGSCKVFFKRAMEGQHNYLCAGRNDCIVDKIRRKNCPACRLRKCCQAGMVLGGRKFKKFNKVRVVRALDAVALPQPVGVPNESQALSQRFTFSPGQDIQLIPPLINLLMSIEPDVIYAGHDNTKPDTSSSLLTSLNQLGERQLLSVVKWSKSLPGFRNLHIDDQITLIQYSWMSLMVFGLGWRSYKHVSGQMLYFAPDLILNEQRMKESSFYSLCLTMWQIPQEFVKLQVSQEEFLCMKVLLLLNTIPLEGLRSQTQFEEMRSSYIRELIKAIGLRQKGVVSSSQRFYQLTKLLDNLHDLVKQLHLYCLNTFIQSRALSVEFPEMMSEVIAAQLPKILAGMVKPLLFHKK
# Procedure, shortened: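 Reporter assay, GripTite PR-UAS-bla HEK 293T cells: 16 hr exposure to DMSO-dissolved compounds at 37C, 5% CO2, in steroid-depleted (2% charcoal-stripped FBS) medium; beta-lactamase measured by FRET fluorescence.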
# [6] = A CellTox Green Cytotoxicity Assay to monitor cytotoxicity in HEK293 cells - 32 hour (AID 1224881); further: nearly all actives have a fitted effect of over 40% in size; further: potency means the concentration at half of the fitted maximal effect
# Procedure, shortened: (§2)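 Cytotoxicity was tracked continuously in HEK293 cells by a DNA-binding dye excluded from viable cells. Compounds were transferred in DMSO 5 h after seeding; fluorescence was recorded at intervals up to 40 h.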
# [7] = molecular target: Acetylcholinesterase (Homo sapiens) (UniProt P22303); experiment: Acetylcholinesterase (AChE) small molecule antagonists: colormetric cell-based qHTS assay (AID 1347395; calls by dose curve; further: nearly all actives have a fitted effect of over 30% in size; further: potency means the concentration at half of the fitted maximal effect)
# Sequence of UniProt P22303 (P22303 whole entry, looked up): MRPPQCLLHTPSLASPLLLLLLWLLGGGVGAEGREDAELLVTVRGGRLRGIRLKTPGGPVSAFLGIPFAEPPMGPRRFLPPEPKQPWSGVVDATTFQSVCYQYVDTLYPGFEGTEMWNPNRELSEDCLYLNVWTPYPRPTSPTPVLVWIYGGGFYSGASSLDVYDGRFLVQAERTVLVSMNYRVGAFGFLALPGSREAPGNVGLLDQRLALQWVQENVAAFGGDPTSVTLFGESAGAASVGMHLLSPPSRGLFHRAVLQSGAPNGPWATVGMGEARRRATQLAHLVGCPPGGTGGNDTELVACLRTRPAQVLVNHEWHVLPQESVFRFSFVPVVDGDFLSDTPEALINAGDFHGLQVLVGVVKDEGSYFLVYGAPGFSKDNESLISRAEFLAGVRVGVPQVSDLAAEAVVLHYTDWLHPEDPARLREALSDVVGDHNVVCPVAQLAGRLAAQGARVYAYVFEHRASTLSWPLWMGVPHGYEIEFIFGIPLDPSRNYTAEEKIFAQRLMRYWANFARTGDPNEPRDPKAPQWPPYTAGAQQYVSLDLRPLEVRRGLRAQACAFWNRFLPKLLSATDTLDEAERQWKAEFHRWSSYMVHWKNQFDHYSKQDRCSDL
# Procedure, shortened: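 After overnight attachment at 37 C, SH-SY5Y cells get 30 min compound exposure; detection cocktail (acetylthiocholine, DTNB) then incubates 90 min at 37 C, and absorbance reflects AChE-generated thiocholine.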
# [8] = A CellTox Green Cytotoxicity Assay to monitor cytotoxicity in HepG2 cells - 24 hour (AID 1224878); further: potency means the concentration at half of the fitted maximal effect; nearly all actives have a fitted effect of over 45% in size
# Procedure, shortened: as §1
# [9] = A CellTox Green Cytotoxicity Assay to monitor cytotoxicity in HepG2 cells - 40 hour (AID 1224879); further: nearly all actives have a fitted effect of over 40% in size; further: potency means the concentration at half of the fitted maximal effect
# Procedure, shortened: as §1
# [10] = qHTS assay to identify small molecule antagonists of the estrogen receptor alpha (ER-alpha) signaling pathway using the BG1 cell line - cell viability counter screen (AID 743081); details: BG1Luc4E2 viability, CellTiter-Fluor, 22 h; activity change, negative = cytotoxicity: at 70.3 µM (top of the series);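 further: compound given together with 17beta-estradiol as the ER stimulus; nearly all actives have a fitted effect of over 45% in size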; further: potency means the concentration at half of the fitted maximal effect; on activity change, negative = cytotoxicity: on the % scale 0 is the no-effect control and ±100 the full control effect
# [11] = qHTS assay to identify small molecule antagonists of the thyroid receptor (TR) signaling pathway (AID 743065); further: nearly all actives have a fitted effect of over 55% in size; further: potency means the concentration at half of the fitted maximal effect
# Procedure, shortened: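 GH3.TRE-Luc rat pituitary cells (two TREs driving luciferase) were dosed with compound, then stimulated with 1 nM T3 (final) for 23.5 h at 37 C. ONE-Glo luminescence was the read-out, with CellTiter-Fluor fluorescence as the cytotoxicity counter-screen.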
# [12] = molecular target: Cytochrome P450 3A4 (Homo sapiens) (UniProt P08684); experiment: Cytochrome P450 Family 3 Subfamily A Member 4 (CYP3A4) small molecule antagonists: luciferase reporter qHTS assay (AID 1671201); further: nearly all actives have a fitted effect of over 50% in size; further: potency means the concentration at half of the fitted maximal effect
# Sequence of UniProt P08684 (P08684 whole entry, looked up): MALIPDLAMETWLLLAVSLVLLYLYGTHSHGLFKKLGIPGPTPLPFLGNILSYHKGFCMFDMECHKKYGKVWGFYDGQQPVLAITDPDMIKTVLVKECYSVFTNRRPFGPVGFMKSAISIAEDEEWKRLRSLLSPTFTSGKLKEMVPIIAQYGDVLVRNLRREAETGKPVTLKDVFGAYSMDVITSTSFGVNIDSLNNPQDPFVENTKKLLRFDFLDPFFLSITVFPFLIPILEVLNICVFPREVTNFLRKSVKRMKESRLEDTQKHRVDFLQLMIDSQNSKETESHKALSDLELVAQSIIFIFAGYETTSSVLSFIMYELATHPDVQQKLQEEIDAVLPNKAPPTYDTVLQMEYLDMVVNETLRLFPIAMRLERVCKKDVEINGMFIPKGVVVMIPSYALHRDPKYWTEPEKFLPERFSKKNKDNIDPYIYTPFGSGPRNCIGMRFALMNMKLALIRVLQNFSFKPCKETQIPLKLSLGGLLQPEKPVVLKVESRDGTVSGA
# Procedure, shortened: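 CYP3A4 activity was followed with a P450-Glo proluciferin substrate. Test compounds in DMSO were preincubated 10 min; NADPH regeneration then ran 1 h, and light output was read 20 min after detection reagent.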
# [13] = A CellTox Green Cytotoxicity Assay to monitor cytotoxicity in HEK293 cells - 8 hour (AID 1224884); further: nearly all actives have a fitted effect of over 35% in size; further: potency means the concentration at half of the fitted maximal effect
# Procedure, shortened: as §2
# [14] = molecular target: Voltage-gated inwardly rectifying potassium channel KCNH2 (Homo sapiens) (UniProt Q12809); experiment: Human Ether-a-go-go-Related Gene (hERG) channel small molecule antagonists: fluorescence cell-based qHTS assay (AID 1671200); further: nearly all actives have a fitted effect of over 50% in size; further: potency means the concentration at half of the fitted maximal effect
# Sequence of UniProt Q12809 (Q12809 whole entry, looked up): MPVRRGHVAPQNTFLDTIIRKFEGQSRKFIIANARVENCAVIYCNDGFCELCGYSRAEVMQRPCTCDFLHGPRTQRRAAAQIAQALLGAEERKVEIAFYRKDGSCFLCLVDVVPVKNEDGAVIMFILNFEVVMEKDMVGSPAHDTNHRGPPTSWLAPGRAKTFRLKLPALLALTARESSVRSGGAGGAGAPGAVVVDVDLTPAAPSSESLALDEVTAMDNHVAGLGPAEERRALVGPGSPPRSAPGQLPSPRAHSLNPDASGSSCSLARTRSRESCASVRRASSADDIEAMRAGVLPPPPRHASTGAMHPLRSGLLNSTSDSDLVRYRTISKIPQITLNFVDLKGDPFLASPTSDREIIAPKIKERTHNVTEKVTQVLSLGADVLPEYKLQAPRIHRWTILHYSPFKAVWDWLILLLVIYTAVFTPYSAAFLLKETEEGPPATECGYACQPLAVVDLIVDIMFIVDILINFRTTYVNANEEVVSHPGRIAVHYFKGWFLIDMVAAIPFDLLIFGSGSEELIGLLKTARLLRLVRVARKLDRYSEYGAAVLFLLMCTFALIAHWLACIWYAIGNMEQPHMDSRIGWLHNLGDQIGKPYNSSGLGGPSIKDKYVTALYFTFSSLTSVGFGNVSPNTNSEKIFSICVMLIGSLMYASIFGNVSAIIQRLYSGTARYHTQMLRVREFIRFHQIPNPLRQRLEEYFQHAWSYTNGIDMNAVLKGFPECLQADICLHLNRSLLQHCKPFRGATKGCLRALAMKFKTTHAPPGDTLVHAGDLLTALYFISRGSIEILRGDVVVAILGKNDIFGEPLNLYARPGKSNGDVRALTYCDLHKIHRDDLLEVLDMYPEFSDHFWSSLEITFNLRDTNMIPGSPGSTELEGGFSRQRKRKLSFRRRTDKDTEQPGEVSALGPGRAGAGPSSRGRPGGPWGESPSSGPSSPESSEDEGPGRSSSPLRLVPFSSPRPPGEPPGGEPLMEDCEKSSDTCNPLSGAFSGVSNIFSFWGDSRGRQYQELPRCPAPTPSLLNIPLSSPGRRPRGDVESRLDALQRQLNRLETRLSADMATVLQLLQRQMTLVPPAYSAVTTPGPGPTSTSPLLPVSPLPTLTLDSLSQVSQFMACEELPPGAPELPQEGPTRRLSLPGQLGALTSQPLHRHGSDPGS
# Procedure, shortened: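 In this thallium-flux screen, overnight-cultured U2OS cells bearing the channel are dye-loaded in darkness for an hour, rested 10 min at room temperature, and then monitored kinetically at 480/540 nm for two minutes post-stimulus.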
# [15] = qHTS assay to identify small molecule antagonists of the retinoid acid receptor (RAR) signaling pathway - cell viability counter screen (AID 1159551); further: on the % scale 0 is the no-effect control and ±100 the full control effect; nearly all actives have a fitted effect of over 35% in size
# Procedure, shortened: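 Cytotoxicity counter screen in C3RL4 cells: 6 h compound exposure with 1 uM retinol (final), viability from cellular ATP by luminescence.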
# [16] = qHTS assay to identify small molecule agonists of H2AX (AID 1224845; active means well fitted activation curve with a large enough effect in the signal ratio in the repeat runs, not every such curve was filed as active; inconclusive means weak or mixed curves; the % refers to the signal ratio; further: on the % scale 0 is the no-effect control and ±100 the full control effect); details: CHO-K1 phospho-H2AX Ser139 HTRF, 3 h; activation (H2AX phosphorylation): at 154 µM (top of the series) unless noted
# Procedure, shortened: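 Wild-type CHO-K1 cells, plated overnight, exposed 3hr at 37C to 15 concentrations (0.76% DMSO final). Lysed, then HTRF anti-pH2AX (S139) cryptate and anti-H2AX-d2 antibodies, 24 hr room temperature; 665/620 nm emission read.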
# [17] = molecular target: Acetylcholinesterase (Homo sapiens) (UniProt P22303); experiment: Acetylcholinesterase (AChE) small molecule antagonists: fluorescence cell-based qHTS assay (AID 1347398; calls by dose curve; further: nearly all actives have a fitted effect of over 50% in size; further: potency means the concentration at half of the fitted maximal effect); details: Potency: AChE activity
# Procedure, shortened: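 Endogenous acetylcholinesterase of SH-SY5Y neuroblastoma cells is measured in situ. After overnight attachment and 30 min compound exposure, cells receive acetylthiocholine and Thiolite Green; fluorescence is read after 40 min at room temperature.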
# [18] = molecular target: Estrogen receptor (Homo sapiens) (UniProt P03372); experiment: qHTS assay to identify small molecule agonists of the estrogen receptor alpha (ER-alpha) signaling pathway using the BG1 cell line (AID 743079); details: BG1Luc4E2 cells, ERE-luciferase agonist, 22 h; activation: at 70.3 µM (top of the series) unless noted; further: on the % scale 0 is the no-effect control and ±100 the full control effect; nearly all actives have a fitted effect of over 20% in size
# Sequence of UniProt P03372 (P03372 whole entry, looked up): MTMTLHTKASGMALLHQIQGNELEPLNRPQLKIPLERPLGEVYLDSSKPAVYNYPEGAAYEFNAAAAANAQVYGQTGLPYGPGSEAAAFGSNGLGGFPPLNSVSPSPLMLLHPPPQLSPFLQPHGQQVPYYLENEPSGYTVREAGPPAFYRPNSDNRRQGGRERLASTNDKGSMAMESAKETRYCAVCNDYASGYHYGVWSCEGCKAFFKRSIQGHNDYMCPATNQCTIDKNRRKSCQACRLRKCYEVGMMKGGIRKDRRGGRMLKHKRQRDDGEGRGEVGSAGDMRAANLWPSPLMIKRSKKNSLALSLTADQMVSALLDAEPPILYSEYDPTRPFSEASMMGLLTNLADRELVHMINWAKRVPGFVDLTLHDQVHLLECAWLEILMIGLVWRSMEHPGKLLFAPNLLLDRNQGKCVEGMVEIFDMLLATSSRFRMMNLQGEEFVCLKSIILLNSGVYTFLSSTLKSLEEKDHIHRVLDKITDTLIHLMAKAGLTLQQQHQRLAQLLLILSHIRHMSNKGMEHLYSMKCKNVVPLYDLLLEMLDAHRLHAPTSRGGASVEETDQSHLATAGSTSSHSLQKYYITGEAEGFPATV
# [19] = qHTS assay to identify small molecule antagonists of the estrogen related receptor (ERR) signaling pathway from Tox21 library - cell viability counter screen (AID 1224834); further: on the % scale 0 is the no-effect control and ±100 the full control effect; nearly all actives have a fitted effect of over 30% in size
# Procedure, shortened: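 Cytotoxicity of test substances is gauged in the same ERR cells used for the antagonist screen, after 17.5 h of compound treatment at 37 C, by CellTiter-Fluor fluorescence measured after 30 min.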
# [20] = A CellTox Green Cytotoxicity Assay to monitor cytotoxicity in HEK293 cells - 40 hour (AID 1224871); further: potency means the concentration at half of the fitted maximal effect; nearly all actives have a fitted effect of over 45% in size
# Procedure, shortened: as §2
# Tags describe the fitted curve by direction and shape or compound fluorescence and quenching.
compound,measurement,setting,value
COc1ccc(OC)c(C=O)c1,Potency,[1],inactive
same,Potency,[2],inactive
same,Potency,[3],"inconclusive: 61.6 µM [cytotoxic, single point]"
CC(=O)O,Potency,[4],inactive
same,Potency,[5],active: 0.392 µM
CC(C)(C)C(=O)Cl,Potency,[6],inactive
same,Potency,[5],"inconclusive: 28 µM [falling, single point]"
CN1CC[C@]23c4c5ccc(O)c4O[C@H]2[C@@H](O)C=C[C@H]3[C@H]1C5,Potency,[7],"inconclusive: 62.4 µM [inhibitor, partial curve]"
CCC1(CC)C(=O)NC(=O)NC1=O,Potency,[8],"inconclusive: 26.8 µM [activator, single point]"
same,Potency,[9],"inconclusive: 26.8 µM [activator, single point]"
same,Potency,[6],inactive
same,Potency,[4],"inconclusive: 26.8 µM [activator, single point]"
N=C(N)[Se],Potency,[10],"inconclusive: 27.4 µM [cytotoxic, partial curve, poor fit]"
same,Potency,[4],inactive
same,Potency,[7],inactive
O=C1CN=C(c2ccccc2)c2cc([N+](=O)[O-])ccc2N1,Potency,[11],"inconclusive: 26.6 µM [inhibitor, partial curve, poor fit]"
same,Potency,[12],inactive
CCCC(C)C1(CC)C(=O)N=C(S)NC1=O (stereo unspecified),Potency,[9],inactive
CCCCCCCCCCCCN(C)C,Potency,[9],"inconclusive: 54.9 µM [activator, single point]"
ClCCCN1CCN(c2cccc(Cl)c2)CC1,Potency,[13],inactive
same,Potency,[5],"inconclusive: 1.19 µM [rising, full curve]"
same,Potency,[14],active: 10.7 µM
Cc1cccc(OP(=O)(Oc2cccc(C)c2)Oc2cccc(C)c2)c1,Potency,[12],"inconclusive: 56.4 µM [inhibitor, partial curve, poor fit]"
CC(C)(Cl)Cl,Potency,[10],inactive
COC(=O)NS(=O)(=O)c1ccc(N)cc1,Potency,[15],inactive
same,Potency,[3],inactive
N#CCBr,Potency,[10],inactive
same,Potency,[16],inactive
NNCc1ccccc1,Potency,[14],"inconclusive: 56 µM [inhibitor, single point]"
CCOP(=S)(OCC)Oc1ccc([N+](=O)[O-])cc1,Potency,[7],active: 64.1 µM and active: 13.8 µM
same,Potency,[17],active: 71.9 µM and active: 15.5 µM
same,Potency,[14],"inconclusive: 39.4 µM [inhibitor, partial curve] and inconclusive: 26.8 µM [inhibitor, single point]"
CCSC(=O)N1CCCCCC1,Potency,[18],inactive
same,Potency,[19],inactive
same,Potency,[9],"inconclusive: 13.4 µM [activator, partial curve]"
Clc1cccc(Cl)c1Cl,Potency,[11],"inconclusive: 24 µM [inhibitor, partial curve, poor fit]"
same,Potency,[3],"inconclusive: 21.9 µM [cytotoxic, single point]"
O=c1ccc(=O)[nH][nH]1,Potency,[2],"inconclusive: 0.206 µM [activator, single point]"
O=C(O)COc1ccccc1,Potency,[9],inactive
CC1(C)C(=O)NC(=O)NC1=O,Potency,[18],inactive
same,Potency,[15],inactive
same,Potency,[20],"inconclusive: 61.6 µM [activator, single point]"
same,Potency,[6],"inconclusive: 54.9 µM [activator, single point]"
same,Potency,[14],inactive
O=C(O)C(F)(F)C(F)(F)C(F)(F)C(F)(F)C(F)(F)C(F)(F)C(F)(F)C(F)(F)F,Potency,[11],"inconclusive: 48.6 µM [inhibitor, partial curve]"
same,Potency,[1],"inconclusive: 56.4 µM [inhibitor, partial curve]"
CC(C)N(Cc1ccccc1)C(=O)C(C)(C)C,Potency,[15],inactive
same,Potency,[8],"inconclusive: 54.9 µM [activator, single point]"
same,Potency,[9],"inconclusive: 54.9 µM [activator, single point]"
same,Potency,[4],"inconclusive: 54.9 µM [activator, single point]"
CCCN1CCC[C@@H]2Cc3[nH]ncc3C[C@H]21,Potency,[6],inactive
same,Potency,[7],active: 27.5 µM
O=c1[nH]c(Cl)c(Cl)cc1Cl,Potency,[11],"inconclusive: 68.6 µM [inhibitor, single point]"
same,activation,[5],inconclusive: 2.44%
C=CCc1ccccc1O,Potency,[15],inactive
same,Potency,[9],inactive
same,Potency,[17],inactive
C1CCC(C2CCCCC2)CC1,Potency,[11],inactive
same,Potency,[2],inactive
same,Potency,[17],inactive
CCNc1nc(Cl)nc(NC(C)(C)C#N)n1,Potency,[20],"inconclusive: 17.4 µM [activator, partial curve, poor fit]"
same,Potency,[6],"inconclusive: 21.9 µM [activator, partial curve, poor fit]"
same,Potency,[13],"inconclusive: 43.6 µM [activator, partial curve, poor fit]"
same,Potency,[12],"inconclusive: 28.3 µM [inhibitor, partial curve] and inconclusive: 39.9 µM [inhibitor, partial curve]"
c1ccc2c(c1)Oc1ccccc1O2,Potency,[15],inactive
same,Potency,[1],"inconclusive: 27.9 µM [inhibitor, full curve] and inconclusive: 35.6 µM [inhibitor, full curve]"
